Counter-ions that a name gives are not always drawn.
tested on: MLKL phosphorylation, HT29-L23 human colorectal adenocarcinoma cells; experiment: cells; settings: read-out: pMLKL HCS Cell Assay (IC50, uM)

`COc1ncc(-c2cc(C(F)(F)F)c3c(N)ncnn23)cc1C(=O)N[C@@H]1CN(C(=O)C2CC(F)(F)C2)C[C@@H]1C` [Example 298, 5-[4-amino-5-(trifluoromethyl)pyrrolo[2,1-f][1,2,4]triazin-7-yl]-N-[(3S,4S)-1-(3,3-difluorocyclo-butanecarbonyl)-4-methyl-pyrrolidin-3-yl]-2-methoxy-pyridine-3-carboxamide] and `COc1ncc(-c2cc(C(F)(F)F)c3c(N)ncnn23)cc1C(=O)N[C@@H]1CN(C(=O)C2CCC(F)(F)CC2)C[C@@H]1C` [Example 299, 5-[4-amino-5-(trifluoromethyl)pyrrolo[2,1-f][1,2,4]triazin-7-yl]-N-[(3S,4S)-1-(4,4-difluorocyclo-hexanecarbonyl)-4-methyl-pyrrolidin-3-yl]-2-methoxy-pyridine-3-carboxamide] are within 1.5-fold of each other in IC50: 0.187 µM for the first, 0.195 µM for the second.

First: COc1ncc(-c2cc(C(F)(F)F)c3c(N)ncnn23)cc1C(=O)N[C@@H]1CN(C(=O)C2CCC(F)(F)CC2)C[C@@H]1F [Example 300, 5-[4-amino-5-(trifluoromethyl)pyrrolo[2,1-f][1,2,4]triazin-7-yl]-N-[(3R,4S)-1-(4,4-difluorocyclo-hexanecarbonyl)-4-fluoro-pyrrolidin-3-yl]-2-methoxy-pyridine-3-carboxamide]
Second: COc1ncc(-c2cc(C(F)(F)F)c3c(N)ncnn23)cc1C(=O)N[C@@H]1CN(C(=O)C2CC2(F)F)C[C@@H]1F (stereo partly drawn) [Example 303, 5-[4-amino-5-(trifluoromethyl)pyrrolo[2,1-f][1,2,4]triazin-7-yl]-N-[(3R,4S)-1-(2,2-difluorocyclo-propanecarbonyl)-4-fluoro-pyrrolidin-3-yl]-2-methoxy-pyridine-3-carboxamide]
The IC50 of the first is 4.5-fold higher: 0.126 µM for the first, 0.028 µM for the second. The second is the more potent here.

First: COc1ncc(-c2cc(C(F)(F)F)c3c(N)ncnn23)cc1C(=O)N[C@@H]1CN(C(=O)C2(C)CC2(F)F)C[C@@H]1F (stereo partly drawn) [Example 304, 5-[4-amino-5-(trifluoromethyl)pyrrolo[2,1-f][1,2,4]triazin-7-yl]-N-[(3R,4S)-1-(2,2-difluoro-1-methylcyclopropanecarbonyl)-4-fluoropyrrolidin-3-yl]-2-methoxypyridine-3-carboxamide]
Second: COc1ncc(-c2cc(C(F)(F)F)c3c(N)ncnn23)cc1C(=O)N[C@@H]1CN(C(=O)C2(O)CC2)C[C@@H]1F [Example 320, 5-[4-amino-5-(trifluoromethyl)pyrrolo[2,1-f][1,2,4]triazin-7-yl]-N-[(3R,4S)-4-fluoro-1-(1-hydroxy-cyclopropanecarbonyl)pyrrolidin-3-yl]-2-methoxypyridine-3-carboxamide]
The IC50 of the first is 4.1-fold lower: 0.03 µM for the first, 0.123 µM for the second.

Compared with `COc1ncc(-c2cc(C(F)(F)F)c3c(N)ncnn23)cc1C(=O)N[C@@H]1CN(C(=O)c2ccc(F)c(F)c2)C[C@@H]1F` [Example 305, 5-[4-amino-5-(trifluoromethyl)pyrrolo[2,1-f][1,2,4]triazin-7-yl]-N-[(3R,4S)-1-(3,4-difluorobenzoyl)-4-fluoropyrrolidin-3-yl]-2-methoxypyridine-3-carboxamide], `COc1ncc(-c2cc(C(F)(F)F)c3c(N)ncnn23)cc1C(=O)N[C@@H]1CN(C(=O)c2c(F)cccc2F)C[C@@H]1F` [Example 306, 5-[4-amino-5-(trifluoromethyl)pyrrolo[2,1-f][1,2,4]triazin-7-yl]-N-[(3R,4S)-1-(2,6-difluorobenzoyl)-4-fluoropyrrolidin-3-yl]-2-methoxypyridine-3-carboxamide] is 1.9-fold lower in IC50: 0.018 µM for the first, 0.0094 µM for the second. The second is the more potent here.

Compared with `COc1ncc(-c2cc(C(F)(F)F)c3c(N)ncnn23)cc1C(=O)N[C@@H]1CN(C(=O)CCC(C)C)C[C@@H]1F` [Example 308, 5-[4-amino-5-(trifluoromethyl)pyrrolo[2,1-f][1,2,4]triazin-7-yl]-N-[(3R,4S)-4-fluoro-1-(4-methylpentanoyl)pyrrolidin-3-yl]-2-methoxypyridine-3-carboxamide], `CCC(=O)N1C[C@H](F)[C@H](NC(=O)c2cc(-c3cc(C(F)(F)F)c4c(N)ncnn34)cnc2OC)C1` [Example 310, 5-[4-amino-5-(trifluoromethyl)pyrrolo[2,1-f][1,2,4]triazin-7-yl]-N-[(3R,4S)-4-fluoro-1-propanoylpyrrolidin-3-yl]-2-methoxypyridine-3-carboxamide] is 6.8-fold higher in IC50: 0.043 µM for the first, 0.294 µM for the second. The first is the more potent here.

`COc1ncc(-c2cc(C(F)(F)F)c3c(N)ncnn23)cc1C(=O)N[C@@H]1CN(C(=O)c2ccc(F)cn2)C[C@@H]1F` [Example 309, 5-[4-amino-5-(trifluoromethyl)pyrrolo[2,1-f][1,2,4]triazin-7-yl]-N-[(3R,4S)-4-fluoro-1-(5-fluoro-pyridine-2-carbonyl)pyrrolidin-3-yl]-2-methoxypyridine-3-carboxamide] and `COc1ncc(-c2cc(C(F)(F)F)c3c(N)ncnn23)cc1C(=O)N[C@@H]1CN(C(=O)c2ccnc(C)c2)C[C@@H]1F` [Example 313, 5-[4-amino-5-(trifluoromethyl)pyrrolo[2,1-f][1,2,4]triazin-7-yl]-N-[(3R,4S)-4-fluoro-1-(2-methylpyridine-4-carbonyl)pyrrolidin-3-yl]-2-methoxy-pyridine-3-carboxamide] are within 1.5-fold of each other in IC50: 0.063 µM for the first, 0.065 µM for the second.

`COc1ncc(-c2cc(C(F)(F)F)c3c(N)ncnn23)cc1C(=O)N[C@@H]1CN(C(=O)C2(C(F)(F)F)CCCCC2)C[C@@H]1F` [Example 312, 5-[4-amino-5-(trifluoromethyl)pyrrolo[2,1-f][1,2,4]triazin-7-yl]-N-[(3R,4S)-4-fluoro-1-[1-(trifluoro-methyl)cyclohexanecarbonyl]pyrrolidin-3-yl]-2-methoxypyridine-3-carboxamide, TFA] and `COc1ncc(-c2cc(C(F)(F)F)c3c(N)ncnn23)cc1C(=O)N[C@@H]1CN(C(=O)C2(O)CCCC2)C[C@@H]1F` [Example 315, 5-[4-amino-5-(trifluoromethyl)pyrrolo[2,1-f][1,2,4]triazin-7-yl]-N-[(3R,4S)-4-fluoro-1-(1-hydroxycyclopentanecarbonyl)pyrrolidin-3-yl]-2-methoxy-pyridine-3-carboxamide, TFA] are within 1.5-fold of each other in IC50: 0.017 µM for the first, 0.019 µM for the second.

Compared with `COc1ncc(-c2cc(C(F)(F)F)c3c(N)ncnn23)cc1C(=O)N[C@@H]1CN(C(=O)C(C)(C)CF)C[C@@H]1F` [Example 314, 5-[4-amino-5-(trifluoromethyl)pyrrolo[2,1-f][1,2,4]triazin-7-yl]-N-[(3R,4S)-4-fluoro-1-(3-fluoro-2,2-dimethylpropanoyl)pyrrolidin-3-yl]-2-methoxypyridine-3-carboxamide], `COc1ncc(-c2cc(C(F)(F)F)c3c(N)ncnn23)cc1C(=O)N[C@@H]1CN(C(=O)CC(C)(C)O)C[C@@H]1F` [Example 317, 5-[4-amino-5-(trifluoromethyl)pyrrolo[2,1-f][1,2,4]triazin-7-yl]-N-[(3R,4S)-4-fluoro-1-(3-hydroxy-3-methylbutanoyl)pyrrolidin-3-yl]-2-methoxypyridine-3-carboxamide] is 11-fold higher in IC50: 0.029 µM for the first, 0.328 µM for the second.

Going from `COc1ncc(-c2cc(C(F)(F)F)c3c(N)ncnn23)cc1C(=O)N[C@@H]1CN(C(=O)C2(O)CCC2)C[C@@H]1F` [Example 316, 5-[4-amino-5-(trifluoromethyl)pyrrolo[2,1-f][1,2,4]triazin-7-yl]-N-[(3R,4S)-4-fluoro-1-(1-hydroxycyclobutanecarbonyl)pyrrolidin-3-yl]-2-methoxy-pyridine-3-carboxamide, TFA] to `COc1ncc(-c2cc(C(F)(F)F)c3c(N)ncnn23)cc1C(=O)N[C@@H]1CN(C(=O)C2(C)CCCC(C)(C)O2)C[C@@H]1F` (stereo partly drawn) [Example 328, 5-[4-amino-5-(trifluoromethyl)pyrrolo[2,1-f][1,2,4]triazin-7-yl]-N-[(3R,4S)-4-fluoro-1-(2,6,6-trimethyloxane-2-carbonyl)pyrrolidin-3-yl]-2-methoxy-pyridine-3-carboxamide], the IC50 rises from 0.045 µM to 0.157 µM (3.5-fold). The first is the more potent here.

`COc1ncc(-c2cc(C(F)(F)F)c3c(N)ncnn23)cc1C(=O)N[C@@H]1CN(C(=O)[C@H](O)C(F)(F)F)C[C@@H]1F` [Example 318, 5-[4-amino-5-(trifluoromethyl)pyrrolo[2,1-f][1,2,4]triazin-7-yl]-N-[(3R,4S)-4-fluoro-1-[(2S)-3,3,3-trifluoro-2-hydroxypropanoyl]pyrrolidin-3-yl]-2-methoxy-pyridine-3-carboxamide] and `COc1ncc(-c2cc(C(F)(F)F)c3c(N)ncnn23)cc1C(=O)N[C@@H]1CN(C(=O)[C@@H](O)C(F)(F)F)C[C@@H]1F` [Example 322, 5-[4-amino-5-(trifluoromethyl)pyrrolo[2,1-f][1,2,4]triazin-7-yl]-N-[(3R,4S)-4-fluoro-1-[(2R)-3,3,3-trifluoro-2-hydroxypropanoyl]pyrrolidin-3-yl]-2-methoxy-pyridine-3-carboxamide] are within 1.5-fold of each other in IC50: 0.124 µM for the first, 0.083 µM for the second.

`COc1ncc(-c2cc(C(F)(F)F)c3c(N)ncnn23)cc1C(=O)N[C@@H]1CN(C(=O)[C@@H](O)C(C)(C)C)C[C@@H]1F` [Example 323, 5-[4-amino-5-(trifluoromethyl)pyrrolo[2,1-f][1,2,4]triazin-7-yl]-N-[(3R,4S)-4-fluoro-1-[(2S)-2-hydroxy-3,3-dimethylbutanoyl]pyrrolidin-3-yl]-2-methoxypyridine-3-carboxamide] and `COc1ncc(-c2cc(C(F)(F)F)c3c(N)ncnn23)cc1C(=O)N[C@@H]1CN(C(=O)C2CCCO2)C[C@@H]1F` (stereo partly drawn) [Example 325, 5-[4-amino-5-(trifluoromethyl)pyrrolo[2,1-f][1,2,4]triazin-7-yl]-N-[(3R,4S)-4-fluoro-1-(oxolane-2-carbonyl)pyrrolidin-3-yl]-2-methoxypyridine-3-carboxamide] are within 1.5-fold of each other in IC50: 0.086 µM for the first, 0.106 µM for the second.

`COc1ncc(-c2cc(C(F)(F)F)c3c(N)ncnn23)cc1C(=O)N[C@@H]1CN(C(=O)C2CCCCO2)C[C@@H]1F` (stereo partly drawn) [Example 326, 5-[4-amino-5-(trifluoromethyl)pyrrolo[2,1-f][1,2,4]triazin-7-yl]-N-[(3R,4S)-4-fluoro-1-(oxane-2-carbonyl)pyrrolidin-3-yl]-2-methoxypyridine-3-carboxamide] and `COc1ncc(-c2cc(C(F)(F)F)c3c(N)ncnn23)cc1C(=O)N[C@@H]1CN(C(=O)C2CCCOC2)C[C@@H]1F` (stereo partly drawn) [Example 327, 5-[4-amino-5-(trifluoromethyl)pyrrolo[2,1-f][1,2,4]triazin-7-yl]-N-[(3R,4S)-4-fluoro-1-(oxane-3-carbonyl)pyrrolidin-3-yl]-2-methoxypyridine-3-carboxamide] are within 1.5-fold of each other in IC50: 0.112 µM for the first, 0.12 µM for the second.
